# Some of the results follow.
# Legend:
# Assay in all cases: glycan array binding signal (z-score within array); higher = stronger binding
# Settings in all cases: glycan notation: IUPAC condensed, linker removed
# [1] = biological target: Man(a1-2)Man(a1-3)[Man(a1-2)Man(a1-6)]Man
# Procedure, shortened: (§1)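 Glycan array data were curated from 3228 arrays in the Consortium for Functional Glycomics database and kept only where the protein sequence was available. Glycan names were converted to IUPAC-condensed notation, and columns mapping to the same glycan were averaged. The binding signal is a within-array Z-score, averaged across arrays of the same protein sequence at different concentrations or buffers and across linkers. Negative Z-scores can be read as non-binding.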
# [2] = biological target: Man(a1-2)Man(a1-3)[Man(a1-2)Man(a1-6)]Man(a1-6)[Man(a1-2)Man(a1-2)Man(a1-3)]Man
# Procedure, shortened: as §1
# [3] = biological target: Man(a1-2)Man(a1-3)[Man(a1-2)Man(a1-6)]Man(a1-6)[Man(a1-2)Man(a1-2)Man(a1-3)]Man(b1-4)GlcNAc(b1-4)GlcNAc
# Procedure, shortened: as §1
# [4] = biological target: Man(a1-2)Man(a1-3)[Man(a1-6)]Man(a1-6)[Man(a1-2)Man(a1-3)]Man(b1-4)GlcNAc(b1-4)GlcNAc
# Procedure, shortened: as §1
# [5] = biological target: Man(a1-2)Man(a1-6)[Man(a1-3)]Man(a1-6)[Man(a1-2)Man(a1-2)Man(a1-3)]Man
# Procedure, shortened: as §1
# [6] = biological target: Man(a1-2)Man(a1-6)[Man(a1-3)]Man(a1-6)[Man(a1-2)Man(a1-2)Man(a1-3)]Man(b1-4)GlcNAc(b1-4)GlcNAc
# Procedure, shortened: as §1
# Man(a1-3)[Man(a1-6)]Man = biological target: Man(a1-3)[Man(a1-6)]Man
# Procedure, shortened: as §1
# [7] = biological target: Man(a1-3)[Man(a1-6)]Man(a1-6)[Man(a1-2)Man(a1-3)]Man(b1-4)GlcNAc(b1-4)GlcNAc
# Procedure, shortened: as §1
# [8] = biological target: Man(a1-3)[Man(a1-6)]Man(a1-6)[Man(a1-3)]Man
# Procedure, shortened: as §1
# [9] = biological target: Man(a1-3)[Man(a1-6)]Man(a1-6)[Man(a1-3)]Man(b1-4)GlcNAc(b1-4)GlcNAc
# Procedure, shortened: as §1
# [10] = biological target: Man(a1-3)[Man(a1-6)]Man(b1-4)GlcNAc(b1-4)GlcNAc
# Procedure, shortened: as §1
# [11] = biological target: Man(a1-3)[Man(a1-6)]Man(b1-4)GlcNAc(b1-4)[Fuc(a1-6)]GlcNAc
# Procedure, shortened: as §1
# Man(a1-6)Man = biological target: Man(a1-6)Man
# Procedure, shortened: as §1
# Man(b1-4)GlcNAc = biological target: Man(b1-4)GlcNAc
# Procedure, shortened: as §1
# MurNAc(b1-4)GlcNAc = biological target: MurNAc(b1-4)GlcNAc
# Procedure, shortened: as §1
# Neu5Ac(a2-3)Gal = biological target: Neu5Ac(a2-3)Gal
# Procedure, shortened: as §1
# [12] = biological target: Neu5Ac(a2-3)Gal(b1-3)GalNAc
# Procedure, shortened: as §1
# [13] = biological target: Neu5Ac(a2-3)Gal(b1-3)GalNAc(b1-3)Gal(a1-4)Gal(b1-4)Glc
# Procedure, shortened: as §1
# [14] = biological target: Neu5Ac(a2-3)Gal(b1-3)GalNAc(b1-4)[Neu5Ac(a2-3)]Gal(b1-4)Glc
# Procedure, shortened: as §1
# [15] = biological target: Neu5Ac(a2-3)Gal(b1-3)GalNAc(b1-4)[Neu5Ac(a2-8)Neu5Ac(a2-3)]Gal(b1-4)Glc
# Procedure, shortened: as §1
# [16] = biological target: Neu5Ac(a2-3)Gal(b1-3)GalNAc6S
# Procedure, shortened: as §1
# [17] = biological target: Neu5Ac(a2-3)Gal(b1-3)GlcNAc
# Procedure, shortened: as §1
# [18] = biological target: Neu5Ac(a2-3)Gal(b1-3)GlcNAc(b1-2)Man
# Procedure, shortened: as §1
# [19] = biological target: Neu5Ac(a2-3)Gal(b1-3)GlcNAc(b1-2)Man(a1-3)[GlcNAc(b1-4)][Neu5Ac(a2-3)Gal(b1-3)GlcNAc(b1-2)Man(a1-6)]Man(b1-4)GlcNAc(b1-4)GlcNAc
# Procedure, shortened: as §1
# [20] = biological target: Neu5Ac(a2-3)Gal(b1-3)GlcNAc(b1-2)Man(a1-3)[Neu5Ac(a2-3)Gal(b1-3)GlcNAc(b1-2)Man(a1-6)]Man(b1-4)GlcNAc(b1-4)GlcNAc
# Procedure, shortened: as §1
# [21] = biological target: Neu5Ac(a2-3)Gal(b1-3)GlcNAc(b1-2)[Neu5Ac(a2-3)Gal(b1-3)GlcNAc(b1-4)]Man(a1-6)[Neu5Ac(a2-3)Gal(b1-3)GlcNAc(b1-2)Man(a1-3)]Man(b1-4)GlcNAc(b1-4)GlcNAc
# Procedure, shortened: as §1
# [22] = biological target: Neu5Ac(a2-3)Gal(b1-3)GlcNAc(b1-3)Gal(b1-3)GlcNAc
# Procedure, shortened: as §1
# [23] = biological target: Neu5Ac(a2-3)Gal(b1-3)GlcNAc(b1-3)Gal(b1-4)GlcNAc
# Procedure, shortened: as §1
# [24] = biological target: Neu5Ac(a2-3)Gal(b1-3)GlcNAc(b1-3)GalNAc
# Procedure, shortened: as §1
# [25] = biological target: Neu5Ac(a2-3)Gal(b1-3)GlcNAc(b1-4)Gal(b1-4)Glc
# Procedure, shortened: as §1
binder,measurement,setting,value
"CC1G-10077 (Coprinopsis cinerea), A8NDT7 (protein) MALNEGVYWIRNSRFTNKVLDLDAANVAKGTSILDFNEHGTFNENHNQLWIVERFQSRDTYLIRSVHSNLVLDLSQGLSANGTPILCWTQHGGTNQQWRIEWVKDDNKTPLYRIVSVATGTAISHNEDDSSAYTVAWSVDDGPKQLWSFDPFVTPLLYRLRVKSTSRVLDLAAASADNGTLALAWEQHTAITKRNQLWWLPYRSGAEEYTIQCLETSTVADLSGGNSGNGTPIYGWQSHGGRNQQWKFEPTSDSGDYYHIKNVEGGSVMDAYMNDSQKRVGGWSNNGGDNQKWLLDPLPSPGPGWVLIQNGGTGKFLCSTPSGDIGTADGPETVYDYSVQWRFIQREYTGVYHVVNRATGAYLRQIGTSMPSIGLAEENDDELKDWWMLETYDNSEIGLASIISRWTGNVLDHYGGVSVQALDNNTENSYRSWAIIPARDWLTSFSLVNGQGGLCLAAQYAREETRLSTTANVNDFHAQWVFRKPSGSSGYTIQNKYNNHYVGGTSARWELVVCCNKYFGIRNTSTQKYLAIEDGQVTFQDQDMTDRKQCWELCSGRATDTSGNDYDLIYMDDDLLEVMIPWVGDKQGDLKHYIEKRATKKPPKDKGGWQLPAAGLIKKPKFNDIRQLLQELIEQWEWDVVNEEREQIQTLVSIDEAEARRLLGRRPHPDIVAAYQRSRSSTLFRIDRQGYFNIAGDRYVNIQGQYGDDSYFHIALPVGVRFGREQIRRFLRDSLDRSTSVTITPTTCKPPSGGPDYNRDPDSDGDNSWIKWTIAVVGTSAIKHSEL",glycan array binding signal (z-score),[1],-0.462
same,glycan array binding signal (z-score),[2],-0.43
same,glycan array binding signal (z-score),[3],-0.463
same,glycan array binding signal (z-score),[4],-0.432
same,glycan array binding signal (z-score),[5],-0.508
same,glycan array binding signal (z-score),[6],-0.421
same,glycan array binding signal (z-score),Man(a1-3)[Man(a1-6)]Man,-0.431
same,glycan array binding signal (z-score),[7],-0.358
same,glycan array binding signal (z-score),[8],-0.484
same,glycan array binding signal (z-score),[9],-0.462
same,glycan array binding signal (z-score),[10],-0.429
same,glycan array binding signal (z-score),[11],-0.371
same,glycan array binding signal (z-score),Man(a1-6)Man,-0.432
same,glycan array binding signal (z-score),Man(b1-4)GlcNAc,-0.396
same,glycan array binding signal (z-score),MurNAc(b1-4)GlcNAc,-0.458
same,glycan array binding signal (z-score),Neu5Ac(a2-3)Gal,-0.51
same,glycan array binding signal (z-score),[12],-0.471
same,glycan array binding signal (z-score),[13],-0.454
same,glycan array binding signal (z-score),[14],-0.46
same,glycan array binding signal (z-score),[15],-0.495
same,glycan array binding signal (z-score),[16],-0.429
same,glycan array binding signal (z-score),[17],-0.452
same,glycan array binding signal (z-score),[18],-0.539
same,glycan array binding signal (z-score),[19],-0.439
same,glycan array binding signal (z-score),[20],-0.387
same,glycan array binding signal (z-score),[21],-0.346
same,glycan array binding signal (z-score),[22],-0.514
same,glycan array binding signal (z-score),[23],-0.476
same,glycan array binding signal (z-score),[24],-0.447
same,glycan array binding signal (z-score),[25],-0.431

# Reference: the supplement of paper PMC8728848
